US20250090699A1, “FAP TARGETING CYCLIC PEPTIDES AND CONJUGATES THEREOF” (Novartis AG, priority 2023, published 2025)
At least one compound was matched to its structure with a doubt left. Starred links: 1 amine or outer side, 2 acyl side, 3 side chain; linkers in the order of their positions; H or OH if unused. Non-standard residues stand in square brackets, D forms with d. Residues, ends and D or L forms follow the SMILES beside them. Groups on a side chain read outwards from the residue. *: point of attachment. X9 = O=C(O)CN1CCN(CC(=O)O)CCN([C@H](CCC(=O)*)C(=O)O)CCN(CC(=O)O)CC1; AAZTA5 = O=C(O)CN1CCN(CC(=O)O)CC(CCCCC(=O)*)(N(CC(=O)O)CC(=O)O)C1; DOTA = O=C(O)CN1CCN(CC(=O)O)CCN(CC(=O)*)CCN(CC(=O)O)CC1; X5 = O=C(CCCc1ccc(I)cc1)NCCCC[C@H](N*)C(=O)O; Phe(4-CH2NH2) = NCc1ccc(C[C@H](N)C(=O)O)cc1; Piperazinyl(4-CH2COOH) = O=C(O)CN1CCN(*)CC1; AEF = NCCOc1ccc(C[C@H](N)C(=O)O)cc1; NMeF = CN[C@@H](Cc1ccccc1)C(=O)O; Aoc(2) = CCCCCC[C@H](N)C(=O)O; Ahp(2) = CCCCC[C@H](N)C(=O)O; hSer = N[C@@H](CCO)C(=O)O; AEEA = NCCOCCOCC(=O)O; CO = O=C([*:1])[*:2]

Experiments:
human FAP = molecular target: T1, human FAP (Homo sapiens, UniProt Q12884); assay: Enzymatic FAP competition assay (Z-Gly-Pro-AMC fluorescence), human FAP; format: biochemical; settings: read-out: h. FAP, Enz., IC50
T1 construct: the biotinylated His, Avi tag, human FAP (26-760, FAP-H82Q6); His; Avi tag (biotinylated); purchased AcroBiosystems FAP-H82Q6
T1 sequence (Q12884 26-760): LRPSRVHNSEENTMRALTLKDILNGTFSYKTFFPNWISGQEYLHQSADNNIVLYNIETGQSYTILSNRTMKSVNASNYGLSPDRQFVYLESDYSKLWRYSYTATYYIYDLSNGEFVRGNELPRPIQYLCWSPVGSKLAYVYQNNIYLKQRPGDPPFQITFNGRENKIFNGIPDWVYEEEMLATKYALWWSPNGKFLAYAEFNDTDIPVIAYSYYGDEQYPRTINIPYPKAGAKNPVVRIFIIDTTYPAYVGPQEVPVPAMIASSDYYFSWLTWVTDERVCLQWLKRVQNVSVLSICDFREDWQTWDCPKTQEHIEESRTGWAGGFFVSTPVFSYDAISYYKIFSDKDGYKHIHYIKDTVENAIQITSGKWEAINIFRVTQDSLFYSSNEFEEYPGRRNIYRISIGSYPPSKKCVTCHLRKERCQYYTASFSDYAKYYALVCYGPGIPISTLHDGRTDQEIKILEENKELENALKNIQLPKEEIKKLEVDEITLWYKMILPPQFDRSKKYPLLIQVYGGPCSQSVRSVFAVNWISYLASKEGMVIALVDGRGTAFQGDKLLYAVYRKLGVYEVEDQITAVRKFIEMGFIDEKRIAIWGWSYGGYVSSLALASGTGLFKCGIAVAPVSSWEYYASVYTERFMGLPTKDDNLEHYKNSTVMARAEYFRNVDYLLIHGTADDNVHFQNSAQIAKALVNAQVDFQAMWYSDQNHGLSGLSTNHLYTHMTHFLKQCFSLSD
Description: (§1) Peptide potencies (IC50) to inhibit the FAP enzymatic activity were determined using a fluorescence-based assay towards the biotinylated His, Avi tag, human FAP (26-760, FAP-H82Q6) and the biotinylated His, Avi tag, mouse FAP (26-761, FAP-M82Q5). Standard assay conditions consisted of 20 μL total volume in white 384-well plates (Greiner, Ref. 784075), in 50 mM phosphate buffer pH 7.5 containing 150 mM NaCl, 0.05% Tween20 and 1% final DMSO. Tested peptides at 14 different concentrations up to 1 μM were added to 0.01 nM human or mouse FAP. The peptides were incubated for 24 hours together with the protein before adding the substrate 50 μM Z-Gly-Pro-AMC (I-1145 from Bachem). Samples were then incubated at 22-24° C. for 4 h before reading the fluorescence at excitation wavelength of 380 nm and emission wavelength of 460 nm using the Tecan Infinite® M1000 PRO. The high control (100% activity) was not containing any peptide, and an internal potent peptide was added at 10 μM concentration for the low control (100% inhibition). IC50 values were calculated by curve fitting using an in-house developed software (Novartis Helios software application) using the method described by Fomenko et al., 2006 (regression algorithms for nonlinear dose-response curve fitting). Following normalization of activity values for the wells to % inhibition (% inhibition=[(high control-sample)/(high control-low control)]x 100). IC50 fitting was carried out from the duplicated points.

mouse FAP [1] = molecular target: T2, mouse FAP (Mus musculus, UniProt P97321); assay: Enzymatic FAP competition assay (Z-Gly-Pro-AMC fluorescence), mouse FAP; format: biochemical; settings: read-out: m. FAP, Enz., IC50
T2 construct: biotinylated His, Avi tag, mouse FAP (26-761, FAP-M82Q5); His; Avi tag (biotinylated); purchased AcroBiosystems FAP-M82Q5
T2 sequence (P97321 26-761): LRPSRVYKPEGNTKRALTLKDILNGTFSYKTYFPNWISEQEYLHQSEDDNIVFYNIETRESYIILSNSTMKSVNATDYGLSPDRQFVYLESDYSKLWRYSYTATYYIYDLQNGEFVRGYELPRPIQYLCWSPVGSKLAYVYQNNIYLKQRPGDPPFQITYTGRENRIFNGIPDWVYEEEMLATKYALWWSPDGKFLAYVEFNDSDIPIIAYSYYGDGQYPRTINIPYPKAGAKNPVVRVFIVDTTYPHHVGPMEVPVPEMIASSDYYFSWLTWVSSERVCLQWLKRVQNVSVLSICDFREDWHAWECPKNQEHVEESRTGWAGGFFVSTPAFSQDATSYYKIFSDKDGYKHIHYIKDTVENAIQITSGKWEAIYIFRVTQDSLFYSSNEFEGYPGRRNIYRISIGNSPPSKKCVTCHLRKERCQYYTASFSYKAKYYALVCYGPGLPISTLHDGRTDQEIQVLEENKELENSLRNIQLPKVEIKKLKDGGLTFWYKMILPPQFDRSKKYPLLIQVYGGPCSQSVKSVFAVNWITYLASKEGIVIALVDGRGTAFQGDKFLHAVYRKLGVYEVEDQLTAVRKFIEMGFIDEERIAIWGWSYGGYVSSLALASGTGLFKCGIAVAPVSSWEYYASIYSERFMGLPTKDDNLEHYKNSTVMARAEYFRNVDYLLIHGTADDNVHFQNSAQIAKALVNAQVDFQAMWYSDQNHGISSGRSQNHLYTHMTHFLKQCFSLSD
Description: as §1

mouse FAP [2] = molecular target: T2, mouse FAP; assay: Surface plasmon resonance (SPR) for peptide affinity, mouse FAP; format: binding
Description: Peptide affinities (KD) were determined by SPR using a Biacore™ 8K device (Cytiva) towards the following proteins: biotinylated His, Avi tag, human FAP (26-760, FAP-H82Q6), biotinylated His, Avi tag, mouse FAP (26-761, FAP-M82Q5), His tag, human DPP4 (34-766, DP4-H82E3), all purchased from AcroBiosystems and His tag, mouse DPP4 (29-760, 954-SE) from R&D Systems. The FAP proteins and their homologous were diluted to a concentration of 2 μg/mL into acetate buffer pH 5.5, then immobilized onto a CM5 sensorchip (Cytiva, BR-1005-30) to reach a response around 2000 R U. The running buffer HBS-EP+pH 7.6 (20× from Teknova CAT. No: H8022) contained 10 mM HEPES pH 7.6, 150 mM NaCl, 3 mM EDTA, 0.05% Tween20 and 2% DMSO. Experiments were carried out at 25° C. using a flow rate of 30 μL/min. Compounds were tested in single cycle kinetic mode at 8 different concentrations. Curve fitting was performed using the Biacore™ 8K evaluation software. The sensorgrams were fitted by applying a 1:1 binding model to calculate kinetic rate constants and equilibrium dissociation constants (KD).
For this assay, the setup had the same conditions (flow rate, running buffer, peptide dilution) as described above for the CM5 method. The oligo CAP reagent obtained in the CAPture Kit (Ref. 28920234) was 1/5 diluted into running buffer and used with a contact time of 300 s at a flow rate of 2 μL/min. The human and mouse FAP constructs described above were used (from AcroBiosystems or produced in house). The FAP proteins were diluted to a concentration of 2 μg/mL into acetate pH 5.5, 0.05% Tween20 and used with a contact time of 600 s at a flow rate of 10 μL/min. The peptides were tested with an association time of 280 s followed by a dissociation time of 3000 s at a flow rate of 30 μL/min. The regeneration was done using the regeneration solution (8 M guanidine-HCl, 1 M NaOH) as obtained with a contact time of 270 s at a flow rate of 10 μL/min. […] The compounds marked with an asterisk were tested against human and mouse DDP4.

| SMILES | IC50 (human FAP) | IC50 (mouse FAP [1]) | Kd (mouse FAP [2]) |
| --- | --- | --- | --- |
| CCCCCC[C@@H]1NC(=O)[C@H](Cc2ccc(CNC(=O)COCCOCCNC(=S)Nc3ccc(CC4CN(CC(=O)O)CCN(CC(=O)O)CCN(CC(=O)O)CCN4CC(=O)O)cc3)cc2)NC(=O)[C@H](Cc2ccccc2)N(C)C(=O)CNC(=O)CNC(=O)[C@H]2CCCN2C(=O)[C@H](CC(=O)O)NC(=O)[C@H](CCCCNC(=O)N2CCN(CC(=O)O)CC2)NC(=O)CNC(=O)[C@H](Cc2c[nH]c3ccccc23)NC1=O (single isomer, unassigned) [Example C35, Gly-Gly-NMePhe-F(4amPEG2NH-p-ScN-DOTA-Lu)-Aoc-Trp-Gly-K(COpipzaa)-Asp-D-Pro] | 0.02 nM | 0.049 nM | < 0.065 nM |
| CCCCCC[C@@H]1NC(=O)[C@H](Cc2ccc(CNC(=O)COCCOCCNC(=O)CN3CCN(CC(=O)O)CCN(CC(=O)O)CCN(CC(=O)O)CC3)cc2)NC(=O)[C@H](Cc2ccccc2)N(C)C(=O)[C@H](CCC(=O)N[C@@H](CCCCNC(=O)CCCc2ccc(I)cc2)C(=O)O)NC(=O)CNC(=O)[C@H]2CCCN2C(=O)[C@H](CC(=O)O)NC(=O)[C@H](CCCCNC(=O)N2CCN(CC(=O)O)CC2)NC(=O)CNC(=O)[C@H](Cc2c[nH]c3ccccc23)NC1=O [Example F2] (cyclo(GE(X5)[NMeF][Phe(4-CH2NH2)]([AEEA-DOTA])[Aoc(2)]WGK([CO-Piperazinyl(4-CH2COOH)])D[dP])) | 0.013 nM | 0.04 nM | < 0.044 nM |
| CCCCCC[C@@H]1NC(=O)[C@H](Cc2ccc(CNC(=O)COCCOCCNC(=O)CCCCC3(N(CC(=O)O)CC(=O)O)CN(CC(=O)O)CCN(CC(=O)O)C3)cc2)NC(=O)[C@H](Cc2ccccc2)N(C)C(=O)CNC(=O)CNC(=O)[C@H]2CCCN2C(=O)[C@H](CC(=O)O)NC(=O)[C@H](CCCCNC(=O)N2CCN(CC(=O)O)CC2)NC(=O)CNC(=O)[C@H](Cc2c[nH]c3ccccc23)NC1=O [Example C37, Gly-Gly-NMePhe-F(4amPEG2NHAAZTA-lu)-Aoc-Trp-Gly-K(COpipzaa)-Asp-D-Pro] (cyclo(GG[NMeF][Phe(4-CH2NH2)]([AEEA-AAZTA5])[Aoc(2)]WGK([CO-Piperazinyl(4-CH2COOH)])D[dP])) | 0.017 nM | 0.029 nM | < 0.047 nM |
| CCCCCC[C@@H]1NC(=O)[C@H](Cc2ccc(CNC(=O)COCCOCCNC(=O)CCC(C(=O)O)N3CCN(CC(=O)O)CCN(CC(=O)O)CC3)cc2)NC(=O)[C@H](Cc2ccccc2)N(C)C(=O)CNC(=O)CNC(=O)[C@H]2CCCN2C(=O)[C@H](CC(=O)O)NC(=O)[C@H](CCCCNC(=O)N2CCN(CC(=O)O)CC2)NC(=O)CNC(=O)[C@H](Cc2c[nH]c3ccccc23)NC1=O (single isomer, unassigned) [Example C42, Gly-Gly-NMePhe-F(4amPEG2NHNODAGA-Ga)-Aoc-Trp-Gly-K(COpipzaa)-Asp-D-Pro] | 0.007 nM | 0.012 nM | < 0.015 nM |
| CCCCCC[C@@H]1NC(=O)[C@H](Cc2ccc(CNC(=O)COCCOCCNC(=O)CN3CCN(CC(=O)O)CCN(CC(=O)O)CCN(CC(=O)O)CC3)cc2)NC(=O)[C@H](Cc2ccccc2)N(C)C(=O)CNC(=O)[C@@H]2CCCN2C(=O)[C@H]2CCCN2C(=O)[C@H](CC(=O)O)NC(=O)[C@H](CCCCNC(=O)N2CCN(CC(=O)O)CC2)NC(=O)CNC(=O)[C@H](Cc2c[nH]c3ccccc23)NC1=O [Example C47, Pro-Gly-NMePhe-F(4amPEG2NHDOTA-Ga)-Aoc-Trp-Gly-K(COpipzaa)-Asp-D-Pro] (cyclo(PG[NMeF][Phe(4-CH2NH2)]([AEEA-DOTA])[Aoc(2)]WGK([CO-Piperazinyl(4-CH2COOH)])D[dP])) | 0.008 nM | 0.025 nM | < 0.028 nM |
| CCCCC[C@@H]1NC(=O)[C@H](Cc2ccc(OCCNC(=O)CN3CCN(CC(=O)O)CCN(CC(=O)O)CCN(CC(=O)O)CC3)cc2)NC(=O)[C@H](Cc2ccccc2)N(C)C(=O)CNC(=O)[C@H](CCO)NC(=O)[C@H]2CCCN2C(=O)[C@H](CC(=O)O)NC(=O)[C@H](Cc2ccc(O)cc2)NC(=O)CNC(=O)[C@H](Cc2c[nH]c3ccccc23)NC1=O [Example C26, hSer-Gly-NMePhe-f(4OEtNHDOTA-Lu)-Ahp-Trp-Gly-Tyr-Asp-D-Pro] (cyclo([hSer]G[NMeF][AEF](DOTA)[Ahp(2)]WGYD[dP])) | 0.018 nM | 0.071 nM | 0.138 nM |
| CCCCCC[C@@H]1NC(=O)[C@H](Cc2ccc(CNC(=O)COCCOCCNC(=O)CC[C@H](C(=O)O)N3CCN(CC(=O)O)CCN(CC(=O)O)CCN(CC(=O)O)CC3)cc2)NC(=O)[C@H](Cc2ccccc2)N(C)C(=O)CNC(=O)CNC(=O)[C@H]2CCCN2C(=O)[C@H](CC(=O)O)NC(=O)[C@H](CCCCNC(=O)N2CCN(CC(=O)O)CC2)NC(=O)CNC(=O)[C@H](Cc2c[nH]c3ccccc23)NC1=O [Example C34, Gly-Gly-NMePhe-F(4amPEG2NHRDOTAGA-Lu)-Aoc-Trp-Gly-K(COpipzaa)-Asp-D-Pro] (cyclo(GG[NMeF][Phe(4-CH2NH2)]([AEEA-X9])[Aoc(2)]WGK([CO-Piperazinyl(4-CH2COOH)])D[dP])) | 0.008 nM | 0.019 nM | 0.038 nM |
